Reference: article PMC4336329 (PLoS ONE, 2015)
The whole screen tested about 310,000 compounds, of which about 2,200 (0.71%) showed an effect of 50% or more. The effect is printed as a negative number. The list shows a part of the results.

Each compound was assayed against human ether-à-go-go-related gene (hERG) potassium channel (human, UniProt Q12809) (assay: primary screen, population patch clamp on CHO cells stably expressing hERG).
human ether-à-go-go-related gene (hERG) potassium channel, sequence (Q12809 whole entry, looked up): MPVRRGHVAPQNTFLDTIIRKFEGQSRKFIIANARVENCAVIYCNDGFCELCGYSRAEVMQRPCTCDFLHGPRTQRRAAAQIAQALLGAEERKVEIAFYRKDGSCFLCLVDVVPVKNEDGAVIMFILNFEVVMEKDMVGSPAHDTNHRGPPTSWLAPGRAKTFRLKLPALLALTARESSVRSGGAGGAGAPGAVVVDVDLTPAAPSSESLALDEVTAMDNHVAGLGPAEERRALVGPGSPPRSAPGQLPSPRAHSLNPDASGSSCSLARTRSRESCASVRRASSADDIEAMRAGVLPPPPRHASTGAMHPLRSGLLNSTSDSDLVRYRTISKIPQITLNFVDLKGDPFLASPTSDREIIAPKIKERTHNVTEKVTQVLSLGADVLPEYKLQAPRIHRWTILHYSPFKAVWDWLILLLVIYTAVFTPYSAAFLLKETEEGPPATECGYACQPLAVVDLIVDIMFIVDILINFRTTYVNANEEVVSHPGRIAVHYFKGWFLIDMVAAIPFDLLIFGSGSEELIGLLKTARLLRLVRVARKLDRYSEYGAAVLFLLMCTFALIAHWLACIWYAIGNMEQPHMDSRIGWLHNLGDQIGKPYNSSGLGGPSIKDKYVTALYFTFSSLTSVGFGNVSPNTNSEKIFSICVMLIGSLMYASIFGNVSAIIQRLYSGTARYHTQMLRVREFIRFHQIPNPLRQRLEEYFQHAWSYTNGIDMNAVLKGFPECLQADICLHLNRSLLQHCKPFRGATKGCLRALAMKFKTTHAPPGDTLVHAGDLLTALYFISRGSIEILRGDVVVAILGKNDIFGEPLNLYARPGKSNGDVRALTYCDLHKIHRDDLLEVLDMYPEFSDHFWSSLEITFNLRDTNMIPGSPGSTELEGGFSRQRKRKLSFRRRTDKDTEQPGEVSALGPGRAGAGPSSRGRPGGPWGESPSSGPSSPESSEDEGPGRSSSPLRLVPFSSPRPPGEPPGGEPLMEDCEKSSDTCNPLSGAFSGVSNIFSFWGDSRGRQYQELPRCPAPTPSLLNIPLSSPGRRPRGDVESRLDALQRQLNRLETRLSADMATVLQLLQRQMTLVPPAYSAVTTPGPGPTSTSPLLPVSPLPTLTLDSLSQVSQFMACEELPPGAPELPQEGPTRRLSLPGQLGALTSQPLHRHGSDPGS

SMILES | hERG current change (%, negative = inhibition) at 1uM [%]
COc1ccccc1NC(=S)NCc1cccnc1 | 9.53
C#CCN(Cc1ccco1)C(=O)c1cc(COc2ccc(F)cc2Cl)on1 | 7.25
CCOC(=O)c1oc2ccccc2c1CSc1nnc(-c2ccco2)o1 | 14.6
COC(=O)c1cccc(NC(=O)CCNC(=O)c2ccco2)c1 | 14.7
Cc1cccc(-n2c(SCc3cc(=O)n4c(C)cccc4n3)nc3[nH]ncc3c2=O)c1 | 3.04
Cc1cc(C)cc(NC(=O)CSc2ccccc2)c1 | 1.16
Cc1cc(C)c(NC(=O)C2c3ccccc3Oc3ccccc32)c(C)c1 | 9.4
O=C(Nc1nc2ccccc2n1CCN1CCCC1)C1CCCCC1 | -39.5
CCn1cc(-c2cc(C(=O)O)on2)c(C)n1 | 16.8
COc1cc(NC(=O)c2onc(C)c2Cl)c(OC)cc1Cl | 5.83
COc1cccc([C@@H]2Oc3ccc(OC)cc3C(=O)[C@H]2OC(=O)NCc2ccc3c(c2)OCO3)c1 | -3.02
COc1ccc(-c2ccc(-c3noc(C4CCCCC4)n3)c(OC)n2)cc1 | 6.83
O=C(Nc1ccccc1)N1CCN(c2ccc(F)cc2)CC1 | 9.95
Cc1cccc(OCCC(=O)Nc2cc(S(=O)(=O)N3CCCCC3)ccc2N2CCOCC2)c1 | 3.58
O=c1[nH]c(=O)n(-c2cccc3ccccc23)c(O)c1/C=N/N1CCCCC1 | 12.3
CCc1cc2c(=O)c(-c3ccc4c(c3)OCCO4)coc2c(CN2CCCCC2C)c1O (stereo not drawn) | 17.2
CCCOc1ccc(CC(CC(=O)O)(C(=O)O)C(=O)O)cc1 | 2.75
O=[N+]([O-])c1ccc2c(c1Nc1ccccc1Cl)=NC1(CCCCC1)N=2 | 7.39
CCCS(=O)(=O)N1CCCC(C(=O)NCCCN(Cc2ccccc2)C(C)C)C1 (stereo not drawn) | 6.94
COC(=O)c1cc(C(=O)N2CCN(C(=O)c3ccco3)CC2)cc([N+](=O)[O-])c1 | -11.5
Cc1cccc(C)c1NC(=O)C1CCN(C(=O)c2cccs2)CC1 | 13.7
CC(C)NC(=O)N1CCC(c2nc3ccccc3s2)CC1 | 11
CC1CCN(c2ccc(S(=O)(=O)N3CCC(C)CC3)cc2N)CC1 | 11.1

SMILES | hERG current change (%, negative = inhibition) at 1uM [%]
COc1ccc(CNC(=O)COC(=O)CO/N=C(\C)c2ccc3c(c2)OCO3)cc1 | 12
COc1cccc(-c2csc(N3CCN(C(=S)Nc4cccc(C)c4)CC3)n2)c1 | 9.44
Cc1ccc(-n2nc3c(=O)n(CC(=O)NC4CCCCCC4)nc(C)c3c2C)cc1 | 17
CC(C)(C)n1ncc2c(=O)n(CC(=O)N3CCc4ccccc43)cnc21 | -2.03
O=C(O)c1ccccc1S(=O)(=O)NCC(O)COc1ccc(Br)cc1 (stereo not drawn) | 6.47
Cc1ccc(CNC(=O)c2cn(C3CCCCC3)c(=O)c3c2c2ccccc2n3C)o1 | 5.04
COC(=O)/C=c1/s/c(=C(\C#N)C(=O)NCc2ccco2)n(-c2ccc(C)cc2)c1=O | 11
Br.O=S(=O)(c1ccc(-c2csc(Nc3ccc(Br)cc3)n2)cc1)N1CCCC1 | 1.99
O=C(Cc1cccs1)N/N=C/c1ccccc1 | 7.63
Cc1ccccc1NC(=S)NCCO | 16.9
N#Cc1c(NC(=O)C2CC2)sc2c1CCCCC2 | -5
O=C(NCc1ccccc1F)C12CC3CC(CC(C3)C1)C2 | 5.4
Cc1ccc(OC(C)C(=O)Nc2ccccc2C(=O)N2CCOCC2)cc1 (stereo not drawn) | 11.8
CCCN1C2CCCC1CC(NC(=O)NC1CCCCC1)C2 (stereo not drawn) | 1.63
CCN(Cc1ccncc1)C(=O)c1ccccc1NS(=O)(=O)c1ccc(Br)cc1 | 10.2
COc1ccccc1C1CCN(Cc2ccc(Cl)c(Cl)c2)CC1 | 10.4
CCN1CCN(C(=O)CCc2nnc(CCCCc3ccccc3)o2)[C@@H](C)C1=O | 12.1
O=C(COC(=O)c1c(Cl)cccc1Cl)NCC1CCCO1 (stereo not drawn) | 2.23
NC(=O)Cn1cc(C(=O)c2ccccc2F)c2ccccc21 | 16.7
Cc1ccc2nc(N(CCN(C)C)C(=O)/C=C/c3cccs3)sc2c1.Cl | 8.73
Cc1ccc(NC(=O)N2CCCC2)cc1Cl | 10.3
CC(C)C1C(C#N)=C(N)Oc2n[nH]c(-c3ccc4ccccc4c3)c21 (stereo not drawn) | 17.8
c1ccc(-c2nnc(OCC3CCCO3)c3ccccc23)cc1 (stereo not drawn) | 17.4

SMILES | hERG current change (%, negative = inhibition) at 1uM [%]
CCn1c(CSCc2ccc(C)cc2)nnc1SCC(=O)NCc1ccccc1 | 0.83
O=C(NCC(=O)N1CCN(Cc2ccccc2)CC1)c1ccc(Cl)cc1 | -4.72
CCCCOc1ccccc1C(=O)N(Cc1ccc(C)o1)C1CCS(=O)(=O)C1 (stereo not drawn) | 3.01
CSCCC(NC(=O)c1ccc(Cl)cc1Cl)C(=O)N1CC(C)OC(C)C1 (stereo not drawn) | 1.18
Cc1ccc(Cn2ccc(C3CC3)n2)cc1 | 5.36
COc1ccc(-n2cccc2/C=C2\C(=N)N3N=C(c4ccco4)SC3=NC2=O)cc1 | 9.87
N#CCSc1nnc2c(Cl)cc(Cl)cn12 | 15.3
O=C(C[n+]1ccc(-c2nnc3n2CCC3)cc1)c1ccc(Cl)cc1.[Br-] | 4.99
CCCNC(=O)C/C(C)=N/NC(=O)COc1ccc(C)cc1Br | -8.77
CCn1ncc(Br)c1C(=O)Nc1ncc(C)s1 | 7.58
CC(C)(C)OC(=O)N1CCC2(CC1)Oc1ccc(F)cc1C(=O)C21CC(c2ccccc2)=NO1 (stereo not drawn) | 10.9
COc1ccc(-c2csc(-c3ccccc3)n2)c(OC)c1 | 9.73
Cc1nnc(SCC(=O)Nc2ccc3c4c(cccc24)CC3)n1C | 12.8
CCCCC(=O)NC(=S)Nc1ccccc1N1CCCCC1 | -4.41
CC(=O)c1ccc(Nc2c3c(c(C#N)c4nc5ccccc5n24)CCC3)cc1 | -67
CSCCC(NS(=O)(=O)c1ccc(C)cc1)C(=O)NC1CCCCCC1 (stereo not drawn) | 17.1
COc1cc(OC)c(C(=O)Nc2ccc3ccccc3c2)cc1OC | 13.9
Cc1ccc(S(=O)(=O)N2CCC(C(N)=O)CC2)cc1C(=O)NC1CCCCC1 | 16.1
CCOC(=O)N1CCN(C(=O)CCCCCn2c(=S)[nH]c3cc4c(cc3c2=O)OCO4)CC1 | 15.5
Cc1ccccc1NC(=O)CCCn1nc(C)c2c(C)n(-c3ccccc3)nc2c1=O | 8.71
Cn1c2ccccc2c2cc(C(=O)NNS(=O)(=O)c3ccc(F)cc3)sc21 | 11.3
COC(=O)N/N=C/c1cc(C)n(-c2ccc(F)cc2)c1C | 9.65
CC(=O)Nc1ccc(S(=O)(=O)N2CCC(C(=O)NC3CC3)CC2)cc1 | 15.6

SMILES | hERG current change (%, negative = inhibition) at 1uM [%]
O=C(CCN1C(=O)/C(=C/c2ccc(Cl)cc2)SC1=S)Nc1cccc(C(=O)O)c1 | 8.72
CC(C)[C@H](NC(=O)c1cccc(CN(Cc2ccccc2)C(=O)c2ccccc2)c1)C(=O)O | 11.1
Cc1ccc(OCCNC(=O)c2cncc(Br)c2)cc1C | 9.65
COc1cc(C2CC(=O)Nc3n[nH]c(-c4ccccc4)c32)cc(OC)c1OC (stereo not drawn) | 8.7
CCOc1ccc(N2C(=O)/C(=C/c3ccc(C)o3)N(C)C2=S)cc1 | 12.1
CCOC(=O)N1CCN(C(=O)Cc2ccccc2[N+](=O)[O-])CC1 | 10.7
CCc1ccccc1NC(=O)Nc1c(C)n(C)n(-c2ccccc2)c1=O | -14.2
Cc1ccc(NS(=O)(=O)c2ccc(NC(=O)c3ccccc3C(=O)O)cc2)cc1C | 5.97
COc1cc(CN2CCN(Cc3cn(C)c4ccccc34)CC2CCO)cc(OC)c1 (stereo not drawn) | -4.71
CCOC(=O)CNC(=O)c1c(C)nn(C)c1Cl | -0.599
CSc1nsc(SCC(=O)NCc2ccccc2)n1 | 13.1
Cc1ccc(Cn2nnc3c(=O)n(CC(=O)N4CCN(c5ccccc5)CC4)cnc32)cc1 | 10.6
Cc1ccc2[nH]c3c(c2c1)CC/C(=C/c1ccccc1)C3=O | 9.35
COc1cccc(OC)c1OCCCCN1CCCC1 | 4.67
COc1ccc(S(=O)(=O)N2CCSC2C)cc1C (stereo not drawn) | 12
COc1ccc(OCCC(=O)OCC(=O)NC2CCCCCCC2)cc1 | 1.17
Nn1cc(-c2ccccc2)nc1SCC(=O)Nc1cccc(S(N)(=O)=O)c1 | 12.6
O=C(CSc1cccc2cccnc12)Nc1cccc(S(=O)(=O)N2CCOCC2)c1 | 9.24
c1ccc(-c2nn3c(C4CCCCC4)nnc3s2)cc1 | 0.449
COc1ccc2c(c1)-c1c(sn(-c3ccccc3)c1=S)C(C)(C)N2 | 7.19
Nc1nc2ccccc2cc1S(=O)(=O)c1ccccc1 | 14.1
